Out of some 310,000 compounds screened, about 14,000 (4.5%) showed an effect of 50% or more. The effect is printed as a negative number. Some of the results follow.
These compounds were tested against human ether-à-go-go-related gene (hERG) potassium channel (human, UniProt Q12809) (assay: primary screen, population patch clamp on CHO cells stably expressing hERG).
Sequence of human ether-à-go-go-related gene (hERG) potassium channel (Q12809 whole entry, looked up): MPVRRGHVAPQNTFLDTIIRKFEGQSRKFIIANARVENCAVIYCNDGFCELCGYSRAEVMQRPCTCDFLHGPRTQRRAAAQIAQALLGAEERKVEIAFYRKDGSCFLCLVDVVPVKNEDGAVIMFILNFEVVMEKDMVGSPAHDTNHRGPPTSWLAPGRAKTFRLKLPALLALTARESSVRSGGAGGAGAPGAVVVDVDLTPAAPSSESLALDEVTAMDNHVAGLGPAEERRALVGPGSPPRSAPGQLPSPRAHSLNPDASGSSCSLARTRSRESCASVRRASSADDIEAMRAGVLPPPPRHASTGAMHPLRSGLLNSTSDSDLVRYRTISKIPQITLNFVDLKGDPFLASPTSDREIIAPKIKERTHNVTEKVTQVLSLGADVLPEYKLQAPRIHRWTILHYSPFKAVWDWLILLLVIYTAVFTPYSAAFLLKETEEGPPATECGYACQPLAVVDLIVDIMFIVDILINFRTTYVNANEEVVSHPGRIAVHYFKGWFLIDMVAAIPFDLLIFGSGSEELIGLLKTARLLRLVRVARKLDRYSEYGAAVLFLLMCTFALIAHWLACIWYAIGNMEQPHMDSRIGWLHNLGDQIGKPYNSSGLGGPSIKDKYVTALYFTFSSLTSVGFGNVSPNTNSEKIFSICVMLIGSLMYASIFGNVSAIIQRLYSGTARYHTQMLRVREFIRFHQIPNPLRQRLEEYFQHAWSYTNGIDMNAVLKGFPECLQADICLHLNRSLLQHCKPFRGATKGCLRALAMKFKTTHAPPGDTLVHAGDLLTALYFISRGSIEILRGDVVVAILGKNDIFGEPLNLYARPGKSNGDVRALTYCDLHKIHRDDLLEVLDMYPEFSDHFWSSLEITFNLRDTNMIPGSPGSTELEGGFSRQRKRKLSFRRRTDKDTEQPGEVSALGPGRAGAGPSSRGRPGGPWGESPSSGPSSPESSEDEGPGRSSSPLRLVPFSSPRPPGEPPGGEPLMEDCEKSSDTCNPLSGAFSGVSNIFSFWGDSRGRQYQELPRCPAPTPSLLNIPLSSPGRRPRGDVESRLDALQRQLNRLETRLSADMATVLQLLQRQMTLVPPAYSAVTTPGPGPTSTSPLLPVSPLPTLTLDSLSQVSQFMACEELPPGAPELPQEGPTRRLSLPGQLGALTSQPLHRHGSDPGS
In the case of `Cc1ccc(-c2cc(C(F)F)nc3sc4c(=O)[nH]cnc4c23)cc1`, the “hERG current change (%, negative = inhibition) at 10uM” value is reported as 6.02%.
In the case of `COc1ccccc1CN1CC(C(=O)N(Cc2cnn(C)c2)C(C)C)CCC1=O` (centres unmarked), the “hERG current change (%, negative = inhibition) at 10uM” value is reported as -4.71%.
In the case of `CC(=O)OC[C@H]1O[C@@H](Sc2cccc3cccnc23)[C@H](OC(C)=O)[C@@H](OC(C)=O)[C@@H]1OC(C)=O`, the “hERG current change (%, negative = inhibition) at 10uM” value is reported as -11.4%.
In the case of `CC1CCN(C(=O)COc2ccc(S(=O)(=O)N3CCOCC3)cc2)CC1`, the “hERG current change (%, negative = inhibition) at 10uM” value is reported as -1.39%.
For `Cc1ccc(C)c(Cn2c3ccccc3c3cnn(CC(=O)NCCN4CCOCC4)c(=O)c32)c1`, the “hERG current change (%, negative = inhibition) at 10uM” value was -45%.
For `CCC(c1nnnn1Cc1ccco1)N(Cc1cc2cc(OC)ccc2[nH]c1=O)C1CCCCC1` (centres unmarked), the “hERG current change (%, negative = inhibition) at 10uM” value was -6.37%.
With `Oc1cccc(O)c1O` the “hERG current change (%, negative = inhibition) at 10uM” value was 18.3%.
`CC(=O)c1c(C)[nH]c(C(=O)OCC(=O)NCc2ccc3c(c2)OCO3)c1C` was tested, and the “hERG current change (%, negative = inhibition) at 10uM” value was 9.8%.
`O=C(O)C(=O)Nc1ccc(NC(=O)C(c2ccccc2)c2ccccc2)cc1` was tested, and the “hERG current change (%, negative = inhibition) at 10uM” value was 20.9%.
In the case of `CS(=O)(=O)N1CCCC(C(=O)NCc2cccs2)C1` (centres unmarked), the “hERG current change (%, negative = inhibition) at 10uM” value is reported as 2.92%.
In the case of `O=C(Cc1c(Cl)cccc1Cl)N/N=C/c1cccnc1`, the “hERG current change (%, negative = inhibition) at 10uM” value is reported as 5.87%.
With `C#Cc1ccc([C@H]2C=C(C(=O)N3CCN(Cc4ccc5c(c4)OCO5)CC3)O[C@@H](OCc3ccc(CO)cc3)C2)cc1` the “hERG current change (%, negative = inhibition) at 10uM” value was -7.23%.
For `CCCn1nc2cc(C(=O)NCCc3ccc(C)cc3)ccc2c1OCC`, the “hERG current change (%, negative = inhibition) at 10uM” value was -25.8%.
`CNc1nc(N)c([N+](=O)[O-])c(N2CCCCCC2)n1` was tested, and the “hERG current change (%, negative = inhibition) at 10uM” value was 17.5%.
In the case of `COc1ccc(NC(=O)CC23CC4CC(C2)CC(n2nnc(C)n2)(C4)C3)cc1`, the “hERG current change (%, negative = inhibition) at 10uM” value is reported as -7.42%.
For `COCCNC(=S)N1CCC(NC(=O)C23CC4CC(CC(C4)C2)C3)CC1`, the “hERG current change (%, negative = inhibition) at 10uM” value was -0.986%.
`O=C(CSc1ccccc1)NN1C(=O)c2ccccc2C1=O` was tested, and the “hERG current change (%, negative = inhibition) at 10uM” value was 13.6%.
`CNC(=O)c1[nH]cnc1C(=O)NCC(=O)OC(C)(C)C` was tested, and the “hERG current change (%, negative = inhibition) at 10uM” value was -3.22%.
For `O=C(NCc1cccs1)c1cc(-c2ccccn2)nc2ccc(Br)cc12`, the “hERG current change (%, negative = inhibition) at 10uM” value was 18.2%.
`O=C1OC2(CCCCC2)OC(=O)C1=CNc1ccc2c(c1)OCO2` was tested, and the “hERG current change (%, negative = inhibition) at 10uM” value was 3.56%.
`Cc1nnnn1-c1ccc(CC(=O)O)cc1` was tested, and the “hERG current change (%, negative = inhibition) at 10uM” value was 5.43%.
With `COc1ccc(-c2[nH]nc3c2C(c2ccccc2OC(=O)N2CCOCC2)C(C#N)=C(N)O3)cc1` (centres unmarked) the “hERG current change (%, negative = inhibition) at 10uM” value was 4.69%.
For `COc1ccc(CNC(=O)c2csc(Cc3ccccc3)n2)cc1`, the “hERG current change (%, negative = inhibition) at 10uM” value was -11.6%.
In the case of `COc1ccc(OC)c(C2C3=C(CCCC3=O)Nc3c2c(=O)n(C)c(=O)n3C)c1` (centres unmarked), the “hERG current change (%, negative = inhibition) at 10uM” value is reported as -19%.
With `CCCCS(=O)CC(O)COCC` (centres unmarked) the “hERG current change (%, negative = inhibition) at 10uM” value was 9.24%.
For `CC(Sc1nc(N)cc(=O)[nH]1)C(=O)Nc1nc2c(s1)CCCC2` (centres unmarked), the “hERG current change (%, negative = inhibition) at 10uM” value was 18.7%.
`C=C(C)CN(CC)C(=O)CN1C(=O)NC2(CCCc3ccccc32)C1=O` (centres unmarked) was tested, and the “hERG current change (%, negative = inhibition) at 10uM” value was 11.8%.
In the case of `CCc1ccc(C(=O)NNC(=O)c2ccc(=O)n(C)n2)cc1`, the “hERG current change (%, negative = inhibition) at 10uM” value is reported as 10%.
With `CCCOc1ccccc1OCC(=O)Nc1ccc(S(=O)(=O)N2CCCCC2)cc1` the “hERG current change (%, negative = inhibition) at 10uM” value was 7.99%.
With `Cc1cc(C)n2nc(SCC(=O)NC3CCCCC3C)nc2n1` (centres unmarked) the “hERG current change (%, negative = inhibition) at 10uM” value was 14.6%.
For `Cc1ccc(S(=O)(=O)CCC(=O)Nc2ccc3c(c2)OCO3)cc1`, the “hERG current change (%, negative = inhibition) at 10uM” value was -16%.
With `Cc1cccc(NC(=O)CCn2ccnc2C)c1` the “hERG current change (%, negative = inhibition) at 10uM” value was -1.42%.
In the case of `O=C1CCCc2nc3c(cc21)C(O)Oc1ccccc1-3` (centres unmarked), the “hERG current change (%, negative = inhibition) at 10uM” value is reported as -3.3%.
With `CCCCCCn1c(C(C)O)nc2ccccc21` (centres unmarked) the “hERG current change (%, negative = inhibition) at 10uM” value was -18.4%.
In the case of `CCN(CC)S(=O)(=O)c1ccc(-c2nnc(SCC(N)=O)n2CC)cc1`, the “hERG current change (%, negative = inhibition) at 10uM” value is reported as 35.8%.
With `CC12CNCC(C)(CN(C3(O)C(=O)Nc4ccc(Br)cc43)C1)C2=O` (centres unmarked) the “hERG current change (%, negative = inhibition) at 10uM” value was 3.04%.
In the case of `C=CCn1c(Br)nc2c1c(=O)[nH]c(=O)n2C`, the “hERG current change (%, negative = inhibition) at 10uM” value is reported as -5.15%.
In the case of `O=C(NCc1cccs1)C(=O)NCC1OCCCN1S(=O)(=O)c1ccccc1` (centres unmarked), the “hERG current change (%, negative = inhibition) at 10uM” value is reported as -14.5%.
`CCOc1ccc(C(=O)/C=C/Nc2ccc(S(=O)(=O)Nc3onc(C)c3C)cc2)cc1` was tested, and the “hERG current change (%, negative = inhibition) at 10uM” value was 12%.
For `CCCNS(=O)(=O)c1ccc(-n2cnnn2)c(OC)c1`, the “hERG current change (%, negative = inhibition) at 10uM” value was 5.49%.
With `COc1ccc(OCCN2C(=O)NC(C)(c3ccc(C)cc3)C2=O)cc1` (centres unmarked) the “hERG current change (%, negative = inhibition) at 10uM” value was -6.89%.
With `O=C(Nc1cccc2cccnc12)c1cccc([N+](=O)[O-])c1` the “hERG current change (%, negative = inhibition) at 10uM” value was 10.7%.
In the case of `CCn1c(SCC(=O)NC(C)C)nnc1-c1cccs1`, the “hERG current change (%, negative = inhibition) at 10uM” value is reported as 12.4%.
In the case of `O=C1Nc2ccc(Br)cc2C1=C1CCCCC1`, the “hERG current change (%, negative = inhibition) at 10uM” value is reported as 18%.
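Further: peak tail current of the secondary pulse compared with the same well before compound.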
